Biological target: cynomolgus LAG3 on 293T cells (cynomolgus monkey)
Experiment: flow cytometry on 293T cells expressing cynomolgus LAG3

B1: SRP1558-A06 (scFv)
chain: EVQLLESGGGLVQPGGSLRLSCAASGFTFSESTMSWVRQAPGKGLEWVGFITSDSGTTDYADSVKGRFTISRDNSKNTLYLQMNSLRAEDTAVYYCAKVFEGGVRPFSDYWGQGTLVTVSSGGGGSGGGGSGGGGSEIVLTQSPGTLSLSPGERATLSCRASQSVSSNPLAWYQQKPGQAPRLLIYGASSRATGIPDRFSGSGSGTDFTLTISRLEPEDFAVYYCQQYMAGPPTFGQGTKVEIKAAGSDQ[human IgG1 Fc with changes cut from this listing]
B1 gave a Kd of 0.3 nM.

B2: SRP1558-F01 (scFv)
chain: EVQLLESGGGLVQPGGSLRLSCAASGFTFPDSSMSWVRQAPGKGLEWVGVITDNSGNTDYADSVKGRFTISRDNSKNTLYLQMNSLRAEDTAVYYCAKVFEGGVRPYSDYWGQGTLVTVSSGGGGSGGGGSGGGGSEIVLTQSPGTLSLSPGERATLSCRASQSVSSGNPAWYQQKPGQAPRLLIYGASSRATGIPDRFSGSGSGTDFTLTISRLEPEDFAVYYCQQYTAGPPTFGQGTKVEIKAAGSDQ[human IgG1 Fc with changes cut from this listing]
Work on B2 yielded a Kd of 0.7 nM.

B3: SRP1448-D09 (scFv)
chain: EVQLLESGGGLVQPGGSLRLSCAASGFTFTDSSMSWVRQAPGKGLEWVGVITGNSGTTDYADSVKGRFTISRDNSKNTLYLQMNSLRAEDTAVYYCAKVYEGGVRPYSDYWGQGTLVTVSSGGGGSGGGGSGGGGSEIVLTQSPGTLSLSPGERATLSCRASQSVSSSYLAWYQQKPGQAPRLLIYGASSRATGIPDRFSGSGSGTDFTLTISRLEPEDFAVYYCQQDTAGPPTFGQGTKVEIKAAGSDQ[human IgG1 Fc with changes cut from this listing]
Work on B3 yielded a Kd of 1.6 nM.

— patent publication US20190330336A1
